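How tested: cells in 96-well plates exposed to compound for 48 hours at five concentrations. GI50 marks 50% less growth. TGI denotes the concentration required for complete inhibition of growth.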

The test system of this experiment is NCI-H322M lung. Nature of the experiment: NCI tumour cell line growth inhibition, 48 h.
As for `Cc1c(C)n(CC(O)CNC2CCCCC2C)c2ccccc12` (stereo not drawn), the GI50 was 14.5 µM and the TGI came out at 28.3 µM.
Consider `COc1ccc2c(c1)CC[C@@H]1C2CC[C@]2(C)C(=N\O)/C(=N/O)CC12` (stereo partly drawn), for which the TGI amounted to 37.2 µM.
Same read-out and setting: to `CCCCN1C(=O)C2c3[nH]c4ccccc4c3C3CCCCC3C2C1=O` (mixture of isomers) belongs 49 µM; to `O=C(O)c1[nH]c(=O)[nH]c(=O)c1CN1CCCCC1`, more than 100 µM; to `O=C(O)\C=C/C=C/C=C/C=C/C(=O)O`, more than 100 µM.
Still for that read-out and setting: to `CC(C)(C)c1cc(O)c2c(c1O)C(=O)CCC2` belongs more than 100 µM; to `NNC(=O)C(O)C(O)C(O)CO` (stereo not drawn), more than 100 µM.
Still for that read-out and setting: to `COC1=CC(=O)c2c(O)c3c(c(O)c2C1=O)OC1(Oc2c(cc4cc(C)oc(=O)c4c2O)CC1O)C3O` (stereo not drawn) belongs more than 100 µM; to `CC(=O)N(CN1C(=O)CCC1C(=O)O)c1ccc(C)cc1` (stereo not drawn), more than 100 µM.
On to `CC[C@@]1(O)C(=O)OCc2c1cc1n(c2=O)Cc2cc3c([N+](=O)[O-])c(O)ccc3nc2-1`, for which the GI50 is 1.84 µM and the TGI worked out at 21.8 µM.
For `CC(=O)NC1C(O)C(O)C(CO)OC1n1nc(SCc2ccccc2)c(=O)[nH]c1=O` (stereo not drawn), the TGI is more than 100 µM.
The same measure, in the same setting: to `O=S(Cc1cnc2ccccc2c1)c1nc2ccccc2nc1-c1cccs1` (stereo not drawn) belongs 39.9 µM.
Still for that read-out and setting: with `CCCCCCCCCCCCCCCCCCNc1ccn(C2OC(COP(=O)(O)OCC(COP(=O)(O)OCC3OC(n4cc(C)c(=O)[nH]c4=O)CC3N=[N+]=[N-])OCCCCCCCCCCCCCCCCCC)C(O)C2O)c(=O)n1` (stereo not drawn) the figure was more than 100 µM.
The same measure, in the same setting: with `COc1ccc2c(c1)OCC1=C2Oc2ccccc2C1` the figure was more than 100 µM.
For `C=CC1CC12C(=O)C1OC2(C)C2C(=O)c3c(O)cccc3C(=O)C12` (stereo not drawn), the GI50 is 36.6 µM and the TGI is more than 100 µM.
As for `CCOc1ccccc1NC(=O)CSc1nnc(Cc2ccccc2)o1`, the TGI is more than 100 µM.
With `COc1ccc(C2CC(c3ccc4ccccc4c3)=NN2/C=C2\SC(=S)N(NC(=O)Cc3ccccc3Nc3c(Cl)cccc3Cl)C2=O)cc1` (stereo not drawn), the GI50 is 0.575 µM and the TGI is more than 81 µM.
Molecule `Cc1cccc(-c2cccc(COCc3cccc(-c4cccc(CO)n4)n3)n2)n1` had a TGI of more than 50 µM.
On the same count and under the same terms, with `Cc1cccc(C)c1NC(=O)C(=O)C(c1ccccc1Cl)S(=O)(=O)Cc1ccccc1Cl` (stereo not drawn) the figure was more than 100 µM.
Same read-out and setting: to `O=C(N/C(=C\NC1=NCCS1)C(=O)N1CSC[C@@H]1C(=O)O)c1ccccc1` belongs more than 100 µM; to `CCOC(=O)C1C(c2ccco2)C2(C#N)C(=N)OC1(C)C2(C#N)C#N` (stereo not drawn), more than 100 µM; to `CC(SC(=S)N(C)C)C(=O)Nc1nnc(-c2ccc(Cl)cc2)o1` (stereo not drawn), more than 100 µM.
For the molecule `COc1ccc(/C=C(/C(=O)N2CCN(c3ccc(C)cc3)CC2)c2cc(OC)c(OC)c(OC)c2)cc1N`, the GI50 is 0.53 µM and the TGI was more than 100 µM.
For `C[C@@]1([C@H](OC(=O)c2cccc3ccccc23)C(N)=O)CO1`, the GI50 is 5.81 µM and the TGI is 17.1 µM.
Molecule `CC(=O)OC1COC(n2c(O)c(N=Nc3ccc([N+](=O)[O-])cc3)c3cc(Br)c([N+](=O)[O-])cc32)C(OC(C)=O)C1OC(C)=O` (stereo not drawn) had a TGI of more than 100 µM.
Still for that read-out and setting: with `NS(=O)(=O)c1ccc(C(=O)O)cc1` the figure was more than 100 µM.
As for `CN(Cc1ccccc1)c1ncnc2ccc(Br)cc12`, the GI50 was 10.5 µM and the TGI is 23.4 µM.
In turn, `CCc1cc(C)cc2[n+]1CC=C2C` showed a TGI of more than 100 µM.
On to `CC(C)(c1ccccc1)c1ccc(Oc2ccc3c(c2)-c2nc-3nc3[nH]c(nc4nc(nc5[nH]c(n2)c2ccc(Oc6ccc(C(C)(C)c7ccccc7)cc6)cc52)-c2cc(Oc5ccc(C(C)(C)c6ccccc6)cc5)ccc2-4)c2ccc(Oc4ccc(C(C)(C)c5ccccc5)cc4)cc32)cc1`, for which the TGI was more than 100 µM.
In the case of `S=P(C1CCCCC1)(C1CCCCC1)C(c1cccnc1)N1CCCC1` (stereo not drawn), the TGI was more than 100 µM.
The same measure, in the same setting: to `CCOc1cccc2sc(N)nc12` belongs more than 100 µM.
`O=C1c2cccc3c([N+](=O)[O-])ccc(c23)C(=O)N1CCCCl`: the GI50 is more than 10 µM and the TGI was more than 10 µM.
Turning to `COc1ccc(-c2cnc(SCC(=O)c3c(C)n(C)n(-c4ccccc4)c3=O)n2-c2ccc(OC)cc2)cc1`, the GI50 was more than 50 µM and the TGI was more than 50 µM.
The molecule `Cc1cc(N(CCC#N)CCC#N)ccc1/C=C(\NC(=O)/C=C/c1ccccc1)NC(=O)Nc1ccccc1C` came in with a TGI of more than 100 µM.
Regarding `CCCCCCCC(=O)SCC/C=C/[C@@H]1CC(=O)NCc2cccc(n2)C2=N[C@@](C)(CS2)C(=O)N[C@@H](C(C)C)C(=O)O1`, the GI50 was 0.0986 µM and the TGI is more than 9.17 µM.
The molecule `COc1ccc(C(=C(C#N)C#N)c2ccc(OC)cc2)cc1` returned a TGI of more than 100 µM.
Regarding `[O-]c1ccccc1[C-]=Nc1ccccc1O.[O-]c1ccccc1[C-]=Nc1ccccc1O.[O]=[U]=[O]`, the GI50 was 9.28 µM and the TGI amounted to 51.8 µM.
`O=c1[nH]ccc2nc(N3CCC(O)CC3)nc(Nc3ccc(N4CCOCC4)cc3)c12` returned a TGI of more than 100 µM.
Turning to `COc1ccc2nc(-c3ccc(Cl)cc3)cc(-c3nnc(SCC(=O)Nc4ccc(/C(C)=N\O)cc4)o3)c2c1`, the GI50 was 2.7 µM and the TGI was determined as 16.7 µM.
The like results for `OCCNC(=S)Nc1ccc(-c2nc(N3C[C@H]4CC[C@@H](C3)O4)c3cccn3n2)cc1` were, in that order, 0.0999 µM and 16 µM.
The like results for `COc1cc2c(cc1OCCCOc1cc3c(cc1OC)C(=O)N1CC(F)(F)C[C@H]1C=N3)N=C[C@@H]1CC(F)(F)CN1C2=O` were, in that order, 5.35 µM and more than 26.3 µM.
The like results for `Cc1ccc(C(=O)Nc2ccc(CN3CCN(C)CC3)c(C(F)(F)F)c2)cc1C#Cc1cnc(N)c2ccc(C#N)cc12` were, in that order, 4.63 µM and more than 39.5 µM.
The molecule `Clc1ccc(C2ON=C(c3ccccc3)N2C23CC4CC(CC(C4)C2)C3)cc1Cl` (stereo not drawn) gave a TGI of more than 10 µM.
The same measure, in the same setting: to `NC(CCCNc1ccc(O)cc1)C(=O)O` (stereo not drawn) belongs more than 100 µM.
With `CCN(CC)c1ccc(CNc2cc(C)nc3ccc(OC)cc23)cc1`, the GI50 was 2.84 µM and the TGI came to 8.49 µM.
For `Nc1ncnc2c1ncn2C1OC(CO)CC1O` (stereo not drawn), the TGI was more than 100 µM.
Same read-out and setting: to `CCC1CCC2C3CC=C4CC(OC(C)=O)C(N)CC4(C)C3CCC12C` (stereo not drawn) belongs 11.2 µM; to `COc1c(N2CCCCC2)c2c(=O)c3ccccc3oc2c2cc(C)oc12`, more than 100 µM; to `C/C(=N\N)C(CN1CCCCC1)C(c1ccccc1)c1c(O)c2ccccc2oc1=O` (stereo not drawn), more than 100 µM.
Still for that read-out and setting: to `COc1cccc(-c2cc(=O)c3cc(C)c(C)c(C(=O)O)c3o2)c1` belongs more than 100 µM; to `COc1cc2c(NCCN(C)C)nc3c4cc5c(cc4ccc3c2cc1OC)OCO5`, 6.19 µM.
On the same count and under the same terms, with `S=C(Nc1ccc(Cl)cc1)c1ccc(CN2CCCCC2)s1` the figure was 45.7 µM.
Molecule `NCc1ccc(O)c(O)c1O` showed a TGI of 59.2 µM.
For the molecule `C=C(c1ccc(OC)c(/C=C/C(=O)c2cc(OC)c(OC)c(OC)c2)c1)c1cc(OC)c(OC)c(OC)c1`, the GI50 is 2.93 µM and the TGI turned out to be 18.6 µM.
`Cc1cc(Cl)ccc1NC(=O)C1C(=O)C(=O)N(c2ccc(Cl)cc2C)C1=O` (stereo not drawn) yielded a TGI of more than 100 µM.
The same measure, in the same setting: with `O=c1[nH]c(=S)n(-c2cccc3ccccc23)c(O)c1/C=C1\C=Nc2ccccc21` the figure was 6.93 µM; with `Clc1cc(Cl)cc(C2SCc3nc4ccccc4n32)c1` (stereo not drawn), 39.1 µM.
Molecule `Cc1nnc(N2C(=O)C(=Cc3ccc(Cl)cc3)N=C2c2ccc(Cl)cc2)nc1/C=C\c1ccc(N(C)C)cc1` registered a TGI of more than 100 µM.
On the same count and under the same terms, with `c1cc2c(cc1NC1=NCCO1)CCCC2` the figure was 47.7 µM.
Take `C=C(C)[C@@H]1CC[C@]2(C(=O)N3CCN(C)CC3)CC[C@]3(C)[C@H](CC[C@@H]4[C@@]5(C)C/C(=C/c6ccncc6)[C@H](O)C(C)(C)[C@@H]5CC[C@]43C)[C@@H]12`: the GI50 is 17.2 µM and the TGI worked out at 76.4 µM.
Take `CN1C(=O)C(C)(C)NS1(=O)=O`: the TGI was more than 100 µM.
With `CCOC(=O)c1ccc(OCc2nc3cc(C(F)(F)F)ccc3nc2-c2ccccc2)cc1`, the TGI was more than 100 µM.
Same read-out and setting: to `Cc1cc(C)c(-n2c(C)c(C)c(C#N)c2N)c(C)c1` belongs more than 100 µM; to `CN(C)C(=O)C(NCCO)c1ccccc1` (stereo not drawn), more than 100 µM.
For the molecule `COCn1c(=O)n(C)c(=O)c2c1nc1c(c(=O)n(C)c(=O)n1COC)[n+]2[O-]`, the TGI is more than 100 µM.
`Nc1ccc([As](=O)(O)O)cc1` had a TGI of more than 100 µM.
For `CSC1=C(C(=O)N(COCC[Si](C)(C)C)c2ccccc2Br)CCC(C(C)(C)C)C1` (stereo not drawn), the TGI stood at 83.8 µM.
With `CCCCC1CCCCCCc2[nH]c(/C=C3\N=C(c4ccc[nH]4)C=C3OC)cc21` (stereo not drawn), the TGI amounted to 9.31 µM.
`CC(=O)O[C@H]1C[C@H]2[C@@H]([C@H](OC(C)=O)C[C@@H]3CC4(CC[C@@]32C)OOC2(CCCCC2)OO4)[C@@H]2CC[C@H]([C@H](C)CCC(N)=O)[C@@]12C` returned a TGI of 23.8 µM.
Take `Nc1nc2ccccc2c2[nH]c3ccccc3c12`: the GI50 was 1.42 µM and the TGI was determined as 3.79 µM.
`Nc1c(C(=O)c2ccc(Cl)cc2)[nH]c(Nc2ccc(Cl)cc2)c1C(=S)Nc1ccccc1` came in with a TGI of 66.3 µM.
Still for that read-out and setting: with `CCOc1cc(/C=N\O)cc(/C=N/O)c1O` the figure was more than 100 µM.
On to `O=S1(=O)OCc2ccccc21`, for which the TGI is more than 100 µM.
Regarding `CCOC(=O)NC(=O)c1cn(CC(=O)NCC(=O)NCC(=O)N2CCN(CCn3c(C)nc(C(N)=O)c3N)CC2)c(=O)[nH]c1=O`, the TGI is more than 100 µM.
For `COc1ccc(Nc2[nH]n(C3=Nc4ccccc4Sc4ccccc43)c(=O)c2C#N)cc1`, the GI50 was 6.56 µM and the TGI is more than 100 µM.
For `COc1ccc(NC(=O)COc2ccccc2)c(C(N)=O)c1`, in that order: 3.21 µM and more than 100 µM.
Molecule `CCCCCCCCCCCCCCCCC(=O)NCC(=O)NCC(=O)NC(Cc1ccccc1)C(=O)Oc1ccc([N+](=O)[O-])cc1` (stereo not drawn) registered a TGI of more than 100 µM.
Same read-out and setting: with `Cc1nc2ccc(F)cc2c2c1CCN2c1ccccc1` the figure was 72.3 µM; with `N#CC1=C(c2ccccc2)NN(Cc2ccccc2)C(c2ccc(Cl)cc2)CC1=O` (stereo not drawn), 75.3 µM; with `N=C1/C(=C/c2ccco2)C(=O)N=C2SC=NN12`, more than 100 µM.
Molecule `OCC(O)C(O)C(O)c1nn[nH]n1` (stereo not drawn) came in with a TGI of more than 100 µM.
`O=C1/C(=N/N=C(c2ccccc2)c2ccccc2)c2ccccc2-c2ccccc21` had a TGI of more than 100 µM.

Source of the values: PubChem BioAssay (NCI).
